Results reported in PubChem BioAssay AID485294 (National Center for Advancing Translational Sciences (NCATS), 2010).
Among all 370,000 compounds or so, about 150 (0.041%) were called active. Inconclusive results, whose numbers are uncertain, are shown with a selection of clear calls. Calls follow the shape of the dose curve; as a rule, active = well fitted inhibition curve with a large enough effect; inconclusive = small, poorly fitted or top-dose-only effect; inactive = flat fitted curve, though single readings scatter. No potency is given beside an inconclusive call; the fits are too rough.
Also: nearly all actives have a fitted effect of over 25% in size.
Potency is read from the fitted curve at half-maximal effect; tags tell the direction and shape of the fitted curve.

The compounds below were run against Beta-lactamase (Escherichia coli (strain K12)) (UniProt P00811) (assay: qHTS Inhibitors of AmpC Beta-Lactamase (assay with detergent)). Details: AmpC hydrolysis of nitrocefin, absorbance 480 nm, 0.01% Triton; series mostly up to 114 µM.
Sequence of UniProt P00811 (P00811 whole entry, looked up): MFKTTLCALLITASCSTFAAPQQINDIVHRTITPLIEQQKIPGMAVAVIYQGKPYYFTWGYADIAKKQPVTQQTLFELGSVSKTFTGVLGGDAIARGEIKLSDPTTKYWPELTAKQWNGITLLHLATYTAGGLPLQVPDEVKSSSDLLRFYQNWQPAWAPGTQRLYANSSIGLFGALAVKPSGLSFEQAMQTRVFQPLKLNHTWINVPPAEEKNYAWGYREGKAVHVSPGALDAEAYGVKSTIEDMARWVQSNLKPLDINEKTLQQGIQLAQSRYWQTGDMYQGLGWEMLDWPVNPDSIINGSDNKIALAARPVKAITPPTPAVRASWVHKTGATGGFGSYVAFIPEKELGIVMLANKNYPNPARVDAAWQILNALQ
In short: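 20 mM phosphate pH 7.0 + 0.01% (detergent screen) or 0.0001% Triton X-100; 5.3 nM AmpC reagent; cpd preinc 15 min RT; nitrocefin (800 uM stock) to start; A480 q20 s × 4 min; Activity was normalised to no-enzyme and no-compound control wells.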
With Cc1cc(C)cc(NC(=O)NCCn2nnc3cc(S(=O)(=O)N(C)C)ccc32)c1 the Potency was “inactive”.
In the case of COc1cccc(C(=O)N2CCN(C(=O)c3cccc(F)c3)CC2)c1, the Potency is reported as inconclusive [inhibitor, single point].
In the case of CN(C)CC(O)COC(c1ccccc1)c1ccccc1 (configuration not stated), the Potency is reported as inconclusive [inhibitor, partial curve, poor fit].
With O=C(COC(=O)c1cc(Br)ccc1O)Nc1ccc2c(c1)OCCO2 the Potency was inconclusive [inhibitor, partial curve, poor fit].
For O=C(Cc1cccs1)NCc1ccccc1, the Potency was inconclusive [inhibitor, partial curve, poor fit].
For CC(C)=CC(=O)OCC(=O)Nc1ccc(SC(F)F)cc1, the Potency was “inactive”.
With COc1cc(/C=N/NC(=O)c2cccnc2)ccc1OC(=O)c1ccc([N+](=O)[O-])cc1 the Potency was “inactive”.
In the case of COCCN(C(=S)Nc1cccc(OC)c1)C(C)c1cccs1 (configuration not stated), the Potency is reported as inconclusive [inhibitor, single point].
CCCn1c(C(C)Nc2nc(-c3cc(Cl)c(N)c(Cl)c3)cs2)nc2cc(Cl)c(N3CCCCC3)cc21 (configuration not stated) was tested, and the Potency was “inactive”.
With COc1ccc(C(=O)OCCN2CCOCC2)cc1OC the Potency was “inactive”.
With CCc1ccc(OCC(=O)N/N=C(\C)c2ccc3c(c2)OCCO3)cc1 the Potency was inconclusive [inhibitor, full curve, poor fit].
For O=C1NC2(CCCCC2)C(=O)N1Cc1cccc(C(F)(F)F)c1, the Potency was inconclusive [inhibitor, single point].
For CCc1nc(SCC(=O)N2c3ccccc3CC2C)c2c(C)c(C)sc2n1 (configuration not stated), the Potency was inconclusive [inhibitor, full curve, poor fit].
In the case of CCC(=O)Nc1nnc(S(=O)(=O)N(C)Cc2ccccc2)s1, the Potency is reported as “inactive”.
In the case of Cc1ccc(NS(=O)(=O)c2cccc(C(=O)Nc3cc(C)on3)c2)cc1, the Potency is reported as inconclusive [inhibitor, full curve].
With CCN(c1cccc(C)c1)S(=O)(=O)c1nnc(NC(=O)c2cccs2)s1 the Potency was “inactive”.
For O=C1CC(/C=C/c2ccc(Cl)cc2)=Nc2ccccc2N1, the Potency was “inactive”.
O=C(/C=C/c1ccc2c(c1)OCO2)Nc1nc2ccccc2s1 was tested, and the Potency was inconclusive [inhibitor, full curve].
With COCCNC(=O)/C(C#N)=C/c1cc(C(C)C)c(OC)cc1C the Potency was inconclusive [inhibitor, full curve, poor fit].
In the case of Cc1nc2sc(C(c3ccccc3)N3CCN(C(=O)c4ccco4)CC3)c(O)n2n1 (configuration not stated), the Potency is reported as inconclusive [inhibitor, full curve].
In the case of COc1ccc(CNS(=O)(=O)c2ccc(C3CNC(=O)C3)cc2)cc1 (configuration not stated), the Potency is reported as inconclusive [inhibitor, full curve, poor fit].
In the case of Cn1c(SCC(=O)c2ccc(-c3ccccc3)cc2)nnc1-c1ccco1, the Potency is reported as inconclusive [inhibitor, partial curve, poor fit].
With COc1ccc(NC(=O)CSc2nc3[nH]ncc3c(=O)[nH]2)c(OC)c1 the Potency was inconclusive [inhibitor, partial curve].
Cc1oc(-c2cccc(Cl)c2)nc1CS(=O)(=O)CC(=O)NCCCN1CCOCC1 was tested, and the Potency was inconclusive [inhibitor, partial curve].
In the case of Cc1[nH]c(C)c(S(=O)(=O)NCc2ccco2)c1C(=O)N1CCCCC1, the Potency is reported as inconclusive [inhibitor, full curve].
For CCOC(=O)Nc1ccc2c(c1)N(C(=O)CN)c1ccccc1CC2, the Potency was inconclusive [inhibitor, partial curve].
Cc1cccc(C(=O)N(c2ccccn2)C(C)c2ccco2)c1 (configuration not stated) was tested, and the Potency was inconclusive [inhibitor, partial curve].
In the case of O=C(Nc1ccccc1C(=O)OCc1cc(=O)n2nc(C3CC3)sc2n1)c1cccc(Cl)c1, the Potency is reported as “inactive”.
With NS(=O)(=O)c1ccc(NC(=O)/C(=C/c2ccncc2)NC(=O)c2ccccc2)cc1 the Potency was inconclusive [inhibitor, partial curve, poor fit].
In the case of CCOC(=O)C1=C(CN2CCN(c3ccccc3)CC2)NC(=O)NC1c1ccc(C)cc1 (configuration not stated), the Potency is reported as “inactive”.
With Cc1ccc(S(=O)(=O)N2CCCCC2)cc1NC(=O)Cn1cnc2c1c(=O)n(C)c(=O)n2C the Potency was inconclusive [inhibitor, partial curve, poor fit].
With O=C(Nc1cc(-c2ccccc2)cs1)c1ccco1 the Potency was “inactive”.
With COCCCn1c2nc3ccccc3nc2c2c(=O)n(Cc3ccc(Cl)cc3)cnc21 the Potency was inconclusive [inhibitor, full curve, poor fit].
With C[C@]1(C(=O)O)C=C[C@@H](Cc2ccccc2)N1C(=O)c1ccccc1 the Potency was inconclusive [inhibitor, partial curve, poor fit].
For O=[N+]([O-])c1ccc(Sc2nc3ccccc3o2)c([N+](=O)[O-])c1, the Potency was inconclusive [inhibitor, full curve, poor fit].
In the case of CCCn1c(CCC(=O)O)ccc1-c1ccccc1, the Potency is reported as inconclusive [inhibitor, single point].
In the case of CCCn1c(=O)c2sccc2n2c(CCCC(=O)N3CCN(c4ccccc4)CC3)nnc12, the Potency is reported as “inactive”.
O=C(NCc1ccc(F)cc1)C1CCCN(c2nc3ccsc3c(=O)s2)C1 (configuration not stated) was tested, and the Potency was inconclusive [inhibitor, full curve, poor fit].
With O=C(Nc1ccccc1Oc1ccccc1)c1cc([N+](=O)[O-])ccc1Cl the Potency was inconclusive [inhibitor, single point].
For O=C(Cc1ccccc1)NCC(=O)OCc1ccc([N+](=O)[O-])cc1, the Potency was inconclusive [inhibitor, partial curve, poor fit].
In the case of CN(C)C1=NC[C@H](Cc2ccccc2)N1CCCCc1ccccc1, the Potency is reported as “inactive”.
O=C(CN(Cc1ccccc1)S(=O)(=O)c1ccccc1)N/N=C/c1ccc([N+](=O)[O-])cc1 was tested, and the Potency was inconclusive [inhibitor, partial curve, poor fit].
In the case of NC(=O)CS(=O)(=O)c1ccc(Cl)cc1, the Potency is reported as “inactive”.
In the case of COc1ccc(CCNC(=S)NC(=O)c2cccc([N+](=O)[O-])c2)cc1OC, the Potency is reported as inconclusive [inhibitor, partial curve].
With Cc1ccccc1NC(=O)C(Cl)=C(Cl)Cl the Potency was “inactive”.
Cc1nn(C)c(C)c1CN(C)C(=O)c1cc2nc(-c3ccco3)cc(C(F)(F)F)n2n1 was tested, and the Potency was inconclusive [inhibitor, full curve].
With COc1ccc(Cl)cc1N1C(=O)C2CCCN2C1c1ccc(F)cc1 (configuration not stated) the Potency was inconclusive [inhibitor, full curve, poor fit].
FC(F)(F)c1nc2ccccc2n2c(-c3ccc(Cl)cc3Cl)nnc12 was tested, and the Potency was inconclusive [inhibitor, full curve, poor fit].
For Cc1cc(C)cc(NC(=O)C2CCN(S(=O)(=O)c3c(C)n[nH]c3C)CC2)c1, the Potency was inconclusive [inhibitor, full curve, poor fit].
For COC(=O)C1(S(=O)(=O)c2cccc3nsnc23)CC1, the Potency was inconclusive [inhibitor, full curve, poor fit].
In the case of O=C(CSCCc1ccccn1)Nc1ccccn1, the Potency is reported as inconclusive [inhibitor, single point].
In the case of COc1ccccc1-c1nc(SCC(=O)N(C)c2ccccc2)c2c(=O)n(C)c(=O)n(C)c2n1, the Potency is reported as inconclusive [inhibitor, full curve].
In the case of C#CCOCCOCCOCCNc1nc(N2CCN(C(=O)Cn3cc(CCCCN)nn3)CC2)nc(N2CCN(C(=O)[C@H]([C@@H](C)CC)n3cc(CCCCN)nn3)CC2)n1, the Potency is reported as inconclusive [inhibitor, full curve, poor fit].
In the case of Cc1ccccc1OCC(=O)NC(=S)Nc1ccc(N2CCOCC2)c(Cl)c1, the Potency is reported as “inactive”.
In the case of CC(=O)c1cccc(-n2c(CCC(=O)O)ccc2-c2cccs2)c1, the Potency is reported as “inactive”.
With CCSc1nnc(NC(=O)CSc2nc3c(c(=O)n2-c2ccccc2)SCC3)s1 the Potency was inconclusive [inhibitor, full curve, poor fit].
In the case of COc1ccc(C2NC(Cc3ccccc3)(C(=O)O)C3C(=O)N(c4ccccc4OC)C(=O)C23)cc1 (configuration not stated), the Potency is reported as “inactive”.
For CC1CCc2nc(NC(=O)COc3ccc(C(C)(C)C)cc3)sc2C1 (configuration not stated), the Potency was “inactive”.
In the case of O=C(N/N=C/c1ccc(Br)s1)c1cccc([N+](=O)[O-])c1, the Potency is reported as inconclusive [inhibitor, single point].
With CCSc1ccc(-c2nn(-c3ccccc3)cc2/C=C(/C#N)C(=O)NC)cc1 the Potency was inconclusive [inhibitor, partial curve].
With COc1ccc(C2C(C(=O)NCC3CCCO3)CCC(=O)N2c2ccc3c(c2)OCO3)cc1 (configuration not stated) the Potency was inconclusive [inhibitor, full curve, poor fit].
With N=c1oc2ccccc2cc1-c1nc(-c2ccccc2)cs1 the Potency was “inactive”.
O=C(NCC(c1cccs1)N1CCOCC1)c1cn(-c2ccccc2)nc1-c1ccc(F)cc1 (configuration not stated) was tested, and the Potency was inconclusive [inhibitor, single point].
In the case of COCC(C)NC(=O)c1cc(-c2ccccc2OC)on1 (configuration not stated), the Potency is reported as “inactive”.
In the case of Cc1nc(CS(=O)(=O)c2ccccc2)cc(Sc2ccccc2Cl)n1, the Potency is reported as “inactive”.
With COCCn1c(-c2ccc(Cl)cc2)nc2c(c(=O)c3ccccc3n2C)c1=O the Potency was inconclusive [inhibitor, single point].
In the case of COc1ccc(-c2cc(C(=O)NCc3ccc(Cl)cc3)no2)cc1OC, the Potency is reported as inconclusive [inhibitor, full curve, poor fit].
